Among the data in the GPR68 mutational scans of Howard et al. (2025) are cAMP reporter score and surface expression score values, retold here.

B1: GPR68, Q15743 (parent)
chain: MGNITADNSSMSCTIDHTIHQTLAPVVYVTVLVVGFPANCLSLYFGYLQIKARNELGVYLCNLTVADLFYICSLPFWLQYVLQHDNWSHGDLSCQVCGILLYENIYISVGFLCCISVDRYLAVAHPFRFHQFRTLKAAVGVSVVIWAKELLTSIYFLMHEEVIEDENQHRVCFEHYPIQAWQRAINYYRFLVGFLFPICLLLASYQGILRAVRRSHGTQKSRKDQIQRLVLSTVVIFLACFLPYHVLLLVRSVWEASCDFAKGVFNAYHFSLLLTSFNCVADPVLYCFVSETTHRDLARLRGACLAFLTCSRTGRAREAYPLGAPEASGKSGAQGEEPELLTKLHPAFQTPNSPGSGGFPTGRLA

Scores whose standard error is large were omitted. Two further conditions of the source, in which the scores hardly spread, are not listed. Read del as a deletion of the residues named and ins as an insertion between two positions. For part of these data: How much ogerin was present is not stated here.

The variants in data set [1] derive from B1. Kind of data set: cAMP reporter score (Enrich2 score, wild type = 0); higher = more signal; HEK293T, FACS bins.
Variants of B1 are the subject of data set [2]. Kind of data set: surface expression score (Enrich2 score, wild type = 0); higher = more signal; HEK293T, FACS bins.

On to L121_A122insG, for which the cAMP reporter score is -1.73 in data set [1] (pH 5.5); -1.2 in data set [1] (pH 6); -1.14 in data set [1] (pH 6, modulator: ogerin); -1.07 in data set [1] (pH 6.5, modulator: ogerin). In data set [2], the surface expression score is -3.14.
For the variant A122C, the cAMP reporter score in data set [1] (pH 5.5) is -1.8; in data set [1] (pH 6), -1.51; in data set [1] (pH 6, modulator: ogerin), -1.27; in data set [1] (pH 6.5, modulator: ogerin), -1.26.
For A122Q, the cAMP reporter score in data set [1] (pH 5.5) is -1.57; in data set [1] (pH 6, modulator: ogerin) it was -0.472; in data set [1] (pH 6.5, modulator: ogerin), -1.81. Besides, in data set [2], the surface expression score is -0.28.
Turning to A122K, the cAMP reporter score is -0.814 in data set [1] (pH 5.5); -0.362 in data set [1] (pH 6); -0.945 in data set [1] (pH 6, modulator: ogerin); -0.608 in data set [1] (pH 6.5, modulator: ogerin). Also, the surface expression score in data set [2] is -0.23.
With A122F, the cAMP reporter score is -1.95 in data set [1] (pH 5.5); -1.32 in data set [1] (pH 6); -2.11 in data set [1] (pH 6, modulator: ogerin); -2.21 in data set [1] (pH 6.5, modulator: ogerin). Also, the surface expression score in data set [2] is -0.639.
On the same counts, the results for A122M are -2.71, -1, -1.69, -0.253 and -0.118.
Turning to A122D, the cAMP reporter score in data set [1] (pH 5.5) is -1.45; in data set [1] (pH 6) it was -0.827; in data set [1] (pH 6, modulator: ogerin), -1.51; in data set [1] (pH 6.5, modulator: ogerin) it was -1.37. Moreover, the surface expression score in data set [2] is -2.26.
With A122Y, the cAMP reporter score in data set [1] (pH 5.5) was -0.663; in data set [1] (pH 6), -0.833; in data set [1] (pH 6, modulator: ogerin), -1.95; in data set [1] (pH 6.5, modulator: ogerin), -0.616.
Take A122P: the cAMP reporter score is -1.51 in data set [1] (pH 5.5); -0.992 in data set [1] (pH 6); -1.24 in data set [1] (pH 6, modulator: ogerin); -1.79 in data set [1] (pH 6.5, modulator: ogerin). For the same variant, the surface expression score in data set [2] was -2.11.
As to A122R, the cAMP reporter score in data set [1] (pH 5.5) is -0.394; in data set [1] (pH 6, modulator: ogerin), -0.699; in data set [1] (pH 6.5, modulator: ogerin) it was -0.671. Moreover, the surface expression score in data set [2] is -0.007.
Take A122T: the cAMP reporter score is -1.73 in data set [1] (pH 5.5); -1.26 in data set [1] (pH 6); -0.918 in data set [1] (pH 6.5, modulator: ogerin). Further, the surface expression score in data set [2] worked out at 0.449.
A122S: the cAMP reporter score is -0.574 in data set [1] (pH 5.5); -0.912 in data set [1] (pH 6); -1.23 in data set [1] (pH 6, modulator: ogerin); -0.614 in data set [1] (pH 6.5, modulator: ogerin). The surface expression score in data set [2] is -0.303.
For A122H, the cAMP reporter score was -0.831 in data set [1] (pH 5.5); -1.59 in data set [1] (pH 6); -0.432 in data set [1] (pH 6, modulator: ogerin); -1.55 in data set [1] (pH 6.5, modulator: ogerin). For the same variant, the surface expression score in data set [2] is -0.394.
Take A122I: the cAMP reporter score in data set [1] (pH 5.5) is -1.01; in data set [1] (pH 6, modulator: ogerin), -1.09; in data set [1] (pH 6.5, modulator: ogerin), -1.16. Further, the surface expression score in data set [2] was -0.992.
For the variant A122E, the cAMP reporter score in data set [1] (pH 5.5) was -2.12; in data set [1] (pH 6), -0.419; in data set [1] (pH 6, modulator: ogerin), -1.46; in data set [1] (pH 6.5, modulator: ogerin), -1.34. Besides, the surface expression score in data set [2] is -1.1.
On the same counts, the results for A122G are -0.526, 0.633, -0.705, -1.04 and -2.5.
For A122L, the cAMP reporter score is -0.413 in data set [1] (pH 5.5); -2.04 in data set [1] (pH 6); -0.686 in data set [1] (pH 6, modulator: ogerin); -0.434 in data set [1] (pH 6.5, modulator: ogerin). Also, in data set [2], the surface expression score was -0.183.
Regarding R119_Y120del, the cAMP reporter score in data set [1] (pH 5.5) is -0.829; in data set [1] (pH 6) it was -0.153; in data set [1] (pH 6.5, modulator: ogerin), -0.729. Moreover, the surface expression score in data set [2] was -2.85.
As to I107N, the cAMP reporter score was 0.196 in data set [1] (pH 5.5); 0.562 in data set [1] (pH 6); -1.53 in data set [1] (pH 6, modulator: ogerin); -1.52 in data set [1] (pH 6.5, modulator: ogerin). In data set [2], the surface expression score is -1.4.
I107S: the cAMP reporter score is -1.05 in data set [1] (pH 5.5) and 0.894 in data set [1] (pH 6, modulator: ogerin). The surface expression score in data set [2] was -2.42.
Take I107R: the cAMP reporter score was -1.06 in data set [1] (pH 5.5); -0.617 in data set [1] (pH 6); -0.386 in data set [1] (pH 6.5, modulator: ogerin). For the same variant, the surface expression score in data set [2] is -2.58.
Regarding I107V, the cAMP reporter score in data set [1] (pH 5.5) is -0.482; in data set [1] (pH 6.5, modulator: ogerin) it was -0.426.
I107W: the cAMP reporter score in data set [1] (pH 5.5) was -0.508; in data set [1] (pH 6.5, modulator: ogerin), -1.61. Besides, the surface expression score in data set [2] was -3.56.
For I107Q, the cAMP reporter score is -1.32 in data set [1] (pH 5.5); -1.85 in data set [1] (pH 6); -2 in data set [1] (pH 6, modulator: ogerin); -1.62 in data set [1] (pH 6.5, modulator: ogerin). Further, the surface expression score in data set [2] is -3.01.
As to I107Y, the cAMP reporter score in data set [1] (pH 5.5) is -1.57; in data set [1] (pH 6, modulator: ogerin), -1.06; in data set [1] (pH 6.5, modulator: ogerin), -0.616. Also, the surface expression score in data set [2] is -2.72.
On to I107P, for which the cAMP reporter score in data set [1] (pH 5.5) was -0.41; in data set [1] (pH 6) it was -0.673; in data set [1] (pH 6, modulator: ogerin), -0.653; in data set [1] (pH 6.5, modulator: ogerin), -0.431. The surface expression score in data set [2] is -1.44.
As to L112_C113insGSG, the cAMP reporter score in data set [1] (pH 5.5) was -2.35; in data set [1] (pH 6, modulator: ogerin) it was -2.07; in data set [1] (pH 6.5, modulator: ogerin), -1.42. Also, the surface expression score in data set [2] was -0.841.
V109K: the cAMP reporter score in data set [1] (pH 5.5) is -1.16; in data set [1] (pH 6), -1.51; in data set [1] (pH 6.5, modulator: ogerin), 0.208. Moreover, the surface expression score in data set [2] is -3.28.
Take V109S: the cAMP reporter score was -0.818 in data set [1] (pH 5.5); -0.591 in data set [1] (pH 6); -1.25 in data set [1] (pH 6, modulator: ogerin); -1.32 in data set [1] (pH 6.5, modulator: ogerin). The surface expression score in data set [2] is -0.426.
On the same counts, the results for V109W are -1.51, -1.04, -1.76, -1.38 and -2.91.
For V109T, the cAMP reporter score in data set [1] (pH 5.5) was -0.457; in data set [1] (pH 6), -0.723; in data set [1] (pH 6, modulator: ogerin), 0.094; in data set [1] (pH 6.5, modulator: ogerin) it was 0.285. Further, in data set [2], the surface expression score worked out at 0.324.
On the same counts, the results for V109A are -1.08, 0.237, -1.5, -0.672 and 0.174.
The corresponding values for V109M are -0.58, 0.148, -0.611, -0.634 and -0.568.
